Experimental data published in publication PMC6374363.
No constants are given. Whether binding was seen depends on the method and setting. For some of these results: Binding seen in cells or lysates may run through a third protein. Some binding calls cover weakened binding; strength is not graded here. For some of these results: Tags and fused reporters may be left off the sequences shown. Values belong to the molecule of their own block, whether it stands above or below them.

By UniProt entry, the sequences of proteins in these tests, tags left out.
UniProt Q08297: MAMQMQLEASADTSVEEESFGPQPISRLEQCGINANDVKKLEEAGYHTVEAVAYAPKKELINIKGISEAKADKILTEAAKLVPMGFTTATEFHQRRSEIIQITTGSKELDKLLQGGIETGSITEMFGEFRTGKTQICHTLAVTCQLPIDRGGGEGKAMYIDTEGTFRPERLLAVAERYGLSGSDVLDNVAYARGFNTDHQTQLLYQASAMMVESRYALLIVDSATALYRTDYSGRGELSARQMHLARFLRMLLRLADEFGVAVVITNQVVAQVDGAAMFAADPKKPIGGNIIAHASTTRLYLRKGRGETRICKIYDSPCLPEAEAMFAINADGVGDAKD

Key:
[1] = target: T1, endogenous MEILB2 (mouse testis) (mouse (endogenous in testis)) (UniProt Q9D4G2); assay: co-IP; mouse testis extract; anti-MEILB2 antibody or control IgG on Dynabeads protein A, 6 h at 4 °C; wash with high-salt buffer (400 mM KCl); elution with 0.1 M glycine pH 2.5; immunoblot
T1 sequence: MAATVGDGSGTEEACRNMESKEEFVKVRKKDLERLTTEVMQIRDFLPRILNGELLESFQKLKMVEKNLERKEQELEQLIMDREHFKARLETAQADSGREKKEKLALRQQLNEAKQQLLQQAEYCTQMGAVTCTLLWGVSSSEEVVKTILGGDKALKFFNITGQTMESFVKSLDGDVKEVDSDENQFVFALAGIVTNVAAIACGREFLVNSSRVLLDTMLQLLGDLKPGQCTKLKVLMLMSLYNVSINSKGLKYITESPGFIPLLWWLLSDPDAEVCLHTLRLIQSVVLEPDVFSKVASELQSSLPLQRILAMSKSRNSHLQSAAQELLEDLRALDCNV

[2] = target: T2, GFP-BRCA2-M (a.a. 982–2035) (mouse) (UniProt P97929); assay: co-IP; B16-F1 cells co-expressing GFP-BRCA2 truncations and MEILB2-MYC; extract on GFP-trap_MA beads 2 h at 4 °C; wash with high-salt buffer (400 mM KCl); immunoblot ('GFP pull-down assay')
T2 sequence: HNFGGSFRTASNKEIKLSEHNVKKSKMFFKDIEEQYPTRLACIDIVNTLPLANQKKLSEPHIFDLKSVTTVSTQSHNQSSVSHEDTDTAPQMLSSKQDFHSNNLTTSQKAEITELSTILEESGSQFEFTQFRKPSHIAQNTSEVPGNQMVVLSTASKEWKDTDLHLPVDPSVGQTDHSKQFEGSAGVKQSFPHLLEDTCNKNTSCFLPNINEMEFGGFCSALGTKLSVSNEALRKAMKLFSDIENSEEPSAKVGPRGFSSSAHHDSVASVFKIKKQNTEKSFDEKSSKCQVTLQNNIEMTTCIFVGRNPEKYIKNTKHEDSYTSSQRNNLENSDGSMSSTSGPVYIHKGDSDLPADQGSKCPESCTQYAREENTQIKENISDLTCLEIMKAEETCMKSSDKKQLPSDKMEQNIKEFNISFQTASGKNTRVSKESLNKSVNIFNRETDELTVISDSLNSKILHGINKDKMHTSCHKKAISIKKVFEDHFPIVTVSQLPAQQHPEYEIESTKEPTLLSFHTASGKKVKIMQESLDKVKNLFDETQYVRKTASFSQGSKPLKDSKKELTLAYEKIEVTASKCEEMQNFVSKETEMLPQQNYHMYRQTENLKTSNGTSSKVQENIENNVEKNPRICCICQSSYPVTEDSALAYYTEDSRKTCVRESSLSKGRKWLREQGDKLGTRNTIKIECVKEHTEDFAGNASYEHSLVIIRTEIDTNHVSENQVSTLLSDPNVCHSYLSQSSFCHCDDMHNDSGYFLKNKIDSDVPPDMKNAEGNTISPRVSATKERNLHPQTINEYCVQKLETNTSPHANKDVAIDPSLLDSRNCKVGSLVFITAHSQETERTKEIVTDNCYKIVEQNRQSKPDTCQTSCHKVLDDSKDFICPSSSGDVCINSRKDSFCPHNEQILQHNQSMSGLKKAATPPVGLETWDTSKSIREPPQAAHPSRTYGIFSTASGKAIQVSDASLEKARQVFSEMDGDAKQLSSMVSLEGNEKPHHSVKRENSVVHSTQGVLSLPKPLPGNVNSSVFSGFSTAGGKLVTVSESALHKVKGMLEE

[3] = target: T3, BRCA2-MBD (a.a. 2117–2339), bait (pGBKT7) of the yeast two-hybrid assay (mouse) (UniProt P97929); assay: two-hybrid; baits in pGBKT7 and MEILB2 prey in pGADT7 co-transformed into yeast AH109; selection on SD-tryptophan-leucine-histidine-adenine plates
T3 sequence: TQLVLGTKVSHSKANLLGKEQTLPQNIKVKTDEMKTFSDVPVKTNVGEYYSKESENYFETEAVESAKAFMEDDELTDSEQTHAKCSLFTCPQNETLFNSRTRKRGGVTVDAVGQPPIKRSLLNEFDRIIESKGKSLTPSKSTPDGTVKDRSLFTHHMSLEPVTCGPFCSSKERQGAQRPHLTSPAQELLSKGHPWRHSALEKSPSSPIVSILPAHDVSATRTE

[4] = target: T4, BRCA2-C (a.a. 2036–3329), bait (pGBKT7) of the yeast two-hybrid assay (mouse) (UniProt P97929); assay: as above
T4 sequence: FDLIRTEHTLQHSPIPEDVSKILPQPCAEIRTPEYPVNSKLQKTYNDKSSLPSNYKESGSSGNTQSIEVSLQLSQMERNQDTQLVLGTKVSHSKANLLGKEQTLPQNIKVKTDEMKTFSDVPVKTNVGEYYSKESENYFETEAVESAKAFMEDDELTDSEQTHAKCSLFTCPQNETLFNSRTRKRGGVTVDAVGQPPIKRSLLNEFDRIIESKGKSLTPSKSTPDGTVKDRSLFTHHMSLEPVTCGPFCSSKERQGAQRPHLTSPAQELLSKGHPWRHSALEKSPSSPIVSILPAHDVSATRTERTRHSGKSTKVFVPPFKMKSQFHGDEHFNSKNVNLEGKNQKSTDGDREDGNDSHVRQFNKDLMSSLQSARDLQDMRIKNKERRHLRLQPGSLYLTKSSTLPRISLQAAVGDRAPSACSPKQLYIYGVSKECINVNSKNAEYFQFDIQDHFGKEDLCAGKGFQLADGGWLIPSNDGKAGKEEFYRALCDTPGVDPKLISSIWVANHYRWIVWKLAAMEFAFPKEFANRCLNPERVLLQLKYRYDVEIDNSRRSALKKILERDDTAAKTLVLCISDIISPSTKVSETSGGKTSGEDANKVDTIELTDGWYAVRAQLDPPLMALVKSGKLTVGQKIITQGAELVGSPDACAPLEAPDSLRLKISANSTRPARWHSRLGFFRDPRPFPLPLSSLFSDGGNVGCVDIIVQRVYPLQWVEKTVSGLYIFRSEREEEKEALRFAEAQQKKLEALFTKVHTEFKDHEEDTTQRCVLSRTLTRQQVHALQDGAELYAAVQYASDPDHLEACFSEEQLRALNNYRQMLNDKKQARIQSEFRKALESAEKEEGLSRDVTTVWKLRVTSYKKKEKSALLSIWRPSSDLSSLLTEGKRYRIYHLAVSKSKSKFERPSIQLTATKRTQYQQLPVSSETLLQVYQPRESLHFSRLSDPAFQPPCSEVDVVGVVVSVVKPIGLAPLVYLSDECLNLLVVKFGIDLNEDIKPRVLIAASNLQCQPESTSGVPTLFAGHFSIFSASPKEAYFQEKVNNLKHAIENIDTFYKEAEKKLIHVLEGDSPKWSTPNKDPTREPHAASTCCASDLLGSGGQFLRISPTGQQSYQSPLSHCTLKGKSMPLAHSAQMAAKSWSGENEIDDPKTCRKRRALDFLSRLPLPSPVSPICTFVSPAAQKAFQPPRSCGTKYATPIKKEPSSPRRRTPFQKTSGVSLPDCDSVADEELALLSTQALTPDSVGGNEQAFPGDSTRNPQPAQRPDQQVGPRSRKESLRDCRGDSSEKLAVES

[5] = target: T5, GFP-BRCA2-MBD (a.a. 2117–2339) (mouse) (UniProt P97929); assay: co-IP; B16-F1 cells co-expressing GFP-BRCA2 truncations and MEILB2-MYC; extract on GFP-trap_MA beads 2 h at 4 °C; wash with high-salt buffer (400 mM KCl); immunoblot ('GFP pull-down assay')
T5 sequence: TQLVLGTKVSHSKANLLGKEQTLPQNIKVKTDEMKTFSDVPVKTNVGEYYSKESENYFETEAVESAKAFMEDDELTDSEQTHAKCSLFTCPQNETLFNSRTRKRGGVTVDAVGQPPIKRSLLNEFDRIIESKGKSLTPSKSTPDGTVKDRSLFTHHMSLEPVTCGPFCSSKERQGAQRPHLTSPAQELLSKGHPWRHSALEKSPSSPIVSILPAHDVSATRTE

[6] = target: T6, GFP-BRCA2-C ΔMBD (a.a. 2340–3329) (mouse) (UniProt P97929); assay: as above
T6 sequence: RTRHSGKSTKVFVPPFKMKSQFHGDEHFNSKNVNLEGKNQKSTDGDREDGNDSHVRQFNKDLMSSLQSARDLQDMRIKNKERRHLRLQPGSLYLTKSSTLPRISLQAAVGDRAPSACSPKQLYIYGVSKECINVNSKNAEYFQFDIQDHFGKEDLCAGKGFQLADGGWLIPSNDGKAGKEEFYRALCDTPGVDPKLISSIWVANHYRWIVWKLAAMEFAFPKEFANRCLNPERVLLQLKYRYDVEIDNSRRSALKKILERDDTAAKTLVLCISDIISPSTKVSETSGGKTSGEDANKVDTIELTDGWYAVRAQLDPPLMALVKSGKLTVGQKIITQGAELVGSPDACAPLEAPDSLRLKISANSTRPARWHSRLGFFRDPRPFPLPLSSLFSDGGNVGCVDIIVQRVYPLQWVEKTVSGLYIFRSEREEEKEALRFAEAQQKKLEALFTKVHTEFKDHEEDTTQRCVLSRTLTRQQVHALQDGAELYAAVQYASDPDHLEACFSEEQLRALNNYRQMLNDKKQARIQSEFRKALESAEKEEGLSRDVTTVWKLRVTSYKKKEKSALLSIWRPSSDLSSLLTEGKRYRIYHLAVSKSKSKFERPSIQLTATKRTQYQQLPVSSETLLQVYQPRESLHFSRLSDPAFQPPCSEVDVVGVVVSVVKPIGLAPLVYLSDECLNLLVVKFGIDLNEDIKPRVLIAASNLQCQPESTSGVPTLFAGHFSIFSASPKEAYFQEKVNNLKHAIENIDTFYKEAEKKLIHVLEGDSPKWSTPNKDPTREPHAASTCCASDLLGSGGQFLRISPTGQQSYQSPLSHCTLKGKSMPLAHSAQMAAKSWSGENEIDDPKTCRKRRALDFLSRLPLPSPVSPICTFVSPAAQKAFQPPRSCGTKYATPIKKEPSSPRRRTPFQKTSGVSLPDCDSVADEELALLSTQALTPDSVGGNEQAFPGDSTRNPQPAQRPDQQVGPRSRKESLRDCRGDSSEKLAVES

[7] = target: T7, GFP-BRCA2-C (a.a. 2036–3329) (mouse) (UniProt P97929); assay: as above
T7 sequence: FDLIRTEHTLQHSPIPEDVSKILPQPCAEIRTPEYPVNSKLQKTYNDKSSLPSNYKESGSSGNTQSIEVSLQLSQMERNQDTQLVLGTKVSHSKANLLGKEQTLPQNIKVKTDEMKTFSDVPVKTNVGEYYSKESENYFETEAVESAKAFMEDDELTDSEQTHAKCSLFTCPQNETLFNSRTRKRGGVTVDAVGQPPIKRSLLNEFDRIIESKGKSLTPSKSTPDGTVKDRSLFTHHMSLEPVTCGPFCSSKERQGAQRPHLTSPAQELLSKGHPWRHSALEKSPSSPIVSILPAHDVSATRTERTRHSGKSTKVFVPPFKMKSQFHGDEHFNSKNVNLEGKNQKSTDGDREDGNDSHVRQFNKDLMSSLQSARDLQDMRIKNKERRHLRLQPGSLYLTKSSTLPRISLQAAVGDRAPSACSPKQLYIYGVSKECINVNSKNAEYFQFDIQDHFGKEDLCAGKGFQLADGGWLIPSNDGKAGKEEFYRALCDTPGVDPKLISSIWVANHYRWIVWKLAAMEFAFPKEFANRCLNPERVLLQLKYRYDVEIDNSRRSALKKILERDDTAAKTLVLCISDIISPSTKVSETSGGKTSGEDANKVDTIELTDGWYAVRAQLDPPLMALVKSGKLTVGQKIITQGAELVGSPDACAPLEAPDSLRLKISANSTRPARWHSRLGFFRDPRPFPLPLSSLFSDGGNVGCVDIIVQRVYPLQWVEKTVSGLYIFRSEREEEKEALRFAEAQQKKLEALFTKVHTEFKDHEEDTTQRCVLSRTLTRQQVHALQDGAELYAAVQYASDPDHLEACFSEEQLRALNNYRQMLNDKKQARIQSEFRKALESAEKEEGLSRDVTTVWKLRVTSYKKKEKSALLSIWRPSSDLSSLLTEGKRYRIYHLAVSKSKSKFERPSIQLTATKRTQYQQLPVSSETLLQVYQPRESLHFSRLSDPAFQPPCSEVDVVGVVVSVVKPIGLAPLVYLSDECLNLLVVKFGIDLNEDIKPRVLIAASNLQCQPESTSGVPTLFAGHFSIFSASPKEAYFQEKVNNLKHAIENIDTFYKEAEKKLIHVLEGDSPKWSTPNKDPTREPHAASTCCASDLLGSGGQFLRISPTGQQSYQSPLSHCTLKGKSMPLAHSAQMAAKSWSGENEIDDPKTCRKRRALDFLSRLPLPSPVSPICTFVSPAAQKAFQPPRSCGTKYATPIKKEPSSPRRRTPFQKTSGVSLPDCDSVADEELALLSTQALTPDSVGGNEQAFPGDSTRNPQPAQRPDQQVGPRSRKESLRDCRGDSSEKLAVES

binding [1]: binds
Molecule: endogenous BRCA2 (mouse testis) (from UniProt P97929 1-3329)

binding [2]: binds
Molecule: endogenous RAD51 (B16-F1 cells) (from UniProt Q08297 1-339)

binding [3]: binds
binding [4]: binds
B1: MEILB2 (prey, pGADT7) of the yeast two-hybrid assay (protein, UniProt Q9D4G2 1-338)
chain: MAATVGDGSGTEEACRNMESKEEFVKVRKKDLERLTTEVMQIRDFLPRILNGELLESFQKLKMVEKNLERKEQELEQLIMDREHFKARLETAQADSGREKKEKLALRQQLNEAKQQLLQQAEYCTQMGAVTCTLLWGVSSSEEVVKTILGGDKALKFFNITGQTMESFVKSLDGDVKEVDSDENQFVFALAGIVTNVAAIACGREFLVNSSRVLLDTMLQLLGDLKPGQCTKLKVLMLMSLYNVSINSKGLKYITESPGFIPLLWWLLSDPDAEVCLHTLRLIQSVVLEPDVFSKVASELQSSLPLQRILAMSKSRNSHLQSAAQELLEDLRALDCNV

binding [5]: binds
binding [6]: no binding
binding [7]: binds
B2: MEILB2-MYC (protein, UniProt Q9D4G2 1-338)
chain: MAATVGDGSGTEEACRNMESKEEFVKVRKKDLERLTTEVMQIRDFLPRILNGELLESFQKLKMVEKNLERKEQELEQLIMDREHFKARLETAQADSGREKKEKLALRQQLNEAKQQLLQQAEYCTQMGAVTCTLLWGVSSSEEVVKTILGGDKALKFFNITGQTMESFVKSLDGDVKEVDSDENQFVFALAGIVTNVAAIACGREFLVNSSRVLLDTMLQLLGDLKPGQCTKLKVLMLMSLYNVSINSKGLKYITESPGFIPLLWWLLSDPDAEVCLHTLRLIQSVVLEPDVFSKVASELQSSLPLQRILAMSKSRNSHLQSAAQELLEDLRALDCNV
